In US20260273087A1, “LINKER AND USE THEREOF IN LIGAND DRUG CONJUGATE” (priority 2023, published 2026):

Assay: Plasma stability test, free drug (MMAE) release by LC-MS/MS
Type: in vitro ADME
Conditions: human plasma, 37° C.
Experimental: Free drugs were analyzed by LC-MS/MS.
The free drug standard was prepared as a 1 mg/mL stock solution in DMSO. The free drug stock solution was diluted in blank plasma matrix by gradient dilution to prepare a standard curve with concentrations ranging from 1.0 to 100 ng/mL, as well as QC samples at three concentration levels, namely 3.0 ng/mL (LQC), 40.0 ng/mL (MQC), and 75.0 ng/mL (HQC).
100 μL of each of the study sample, standard curve sample, and QC sample were mixed with acetonitrile. The samples were thoroughly mixed by vortex for 1 minute and centrifuged in a centrifuge at 12000 rpm for 5 minutes to precipitate proteins. The supernatant was transferred to a 96-well plate for LC-MS/MS analysis.
Data were acquired and analyzed using Chromeleon™ software.

Measured: MMAE release ratio (%)

B1: ADC-1D: "control ADC-1D"; control linker-payload conjugated with DB1001 (conjugate)
heavy: QVQLQQPGTEVVKPGASVKLSCKASGFTFPLYWMHWVRQRPGRGLEWIGRIIPIFGHTKYNEKFKNKATLTADESSSTAYMELRSLTSDDSAVYYCARGGYYYYPREGFLDYWGQGTSVTVSS[not shown - human IgG1 constant region]
light: DIVMTQSPASLSVSPGERASISCRSSQSVDYSGDSYMNWYQQKPGQSPRLLIYAASDRESGVPDRFSGSGSGTDFTLKISRVEEEDAGTYYCQQSREDPFTFGQGTKVDIKRTVAAPSVFIFPPSDEQLKSGTASVVCLLNNFYPREAKVQWKVDNALQSGNSQESVTEQDSKDSTYSLSSTLTLSKADYEKHKVYACEVTHQGLSSPVTKSFNRGEC
A (A < 1): 2 h | 8 h | 1 d | 4 d | 7 d

B2: ADC-2D: control ADC; "control linker-payload were conjugated with DB1001" (conjugate)
heavy: B1 heavy
light: B1 light
A (A < 1): 2 h | 8 h | 1 d | 4 d | 7 d
